Test results taken from paper PMC3126750.
No constants are given. Whether binding was seen depends on the method and setting. Some binding calls cover weakened binding; strength is not graded here. Where a sequence is shown, tags or fusion partners need not be part of it.

Amino acid sequences for entries named in this document (tags omitted).
UniProt P48510: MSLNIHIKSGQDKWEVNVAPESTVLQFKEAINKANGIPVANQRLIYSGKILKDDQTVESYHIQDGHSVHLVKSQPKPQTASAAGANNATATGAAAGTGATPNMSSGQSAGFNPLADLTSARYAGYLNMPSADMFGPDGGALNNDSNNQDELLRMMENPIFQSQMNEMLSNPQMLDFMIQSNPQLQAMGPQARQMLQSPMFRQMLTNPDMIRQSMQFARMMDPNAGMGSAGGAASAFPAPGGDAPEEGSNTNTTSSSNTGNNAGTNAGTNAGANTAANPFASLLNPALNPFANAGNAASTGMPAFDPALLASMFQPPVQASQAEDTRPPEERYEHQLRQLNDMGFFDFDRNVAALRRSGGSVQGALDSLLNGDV
UniProt P43593: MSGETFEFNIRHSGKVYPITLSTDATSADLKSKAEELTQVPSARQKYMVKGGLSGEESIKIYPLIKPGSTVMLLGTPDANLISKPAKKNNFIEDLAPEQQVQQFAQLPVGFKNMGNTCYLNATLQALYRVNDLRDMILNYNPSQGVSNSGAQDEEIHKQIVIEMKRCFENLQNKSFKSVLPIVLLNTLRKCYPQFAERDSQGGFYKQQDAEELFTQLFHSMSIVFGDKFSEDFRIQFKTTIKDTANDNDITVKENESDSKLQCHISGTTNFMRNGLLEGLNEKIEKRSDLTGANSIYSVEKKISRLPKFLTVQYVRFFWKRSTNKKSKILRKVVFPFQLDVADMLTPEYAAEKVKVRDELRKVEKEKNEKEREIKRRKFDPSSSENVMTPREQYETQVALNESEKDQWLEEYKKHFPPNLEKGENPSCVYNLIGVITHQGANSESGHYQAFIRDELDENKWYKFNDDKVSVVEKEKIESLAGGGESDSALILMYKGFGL

T1: Rpn1^(391 to 642) fused to Gal4-DBD (S. cerevisiae) (UniProt P38764)
T1 sequence: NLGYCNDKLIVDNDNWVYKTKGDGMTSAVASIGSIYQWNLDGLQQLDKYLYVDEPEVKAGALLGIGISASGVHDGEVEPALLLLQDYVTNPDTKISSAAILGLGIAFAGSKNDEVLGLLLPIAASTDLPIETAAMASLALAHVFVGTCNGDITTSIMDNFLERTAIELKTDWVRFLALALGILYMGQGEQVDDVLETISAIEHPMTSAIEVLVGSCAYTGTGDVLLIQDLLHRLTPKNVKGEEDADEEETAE


Biological target: T1, Rpn1^(391 to 642) fused to Gal4-DBD (S. cerevisiae)
Assay: two-hybrid; reporter strain MaV203; Gal4-DBD fused to Rpn1 391-642 and Gal4-AD fusions; interaction indicated by growth on 100 mM 3-AT and lack of growth on 0.2% 5FOA

Molecule	binding
Gal4-AD fused to Dsk2 (from UniProt P48510 1-373)	binds
Gal4-AD fused to Ddi1 (protein, UniProt P40087 1-428) MDLTISNELTGEIYGPIEVSEDMALTDLIALLQADCGFDKTKHDLYYNMDILDSNRTQSLKELGLKTDDLLLIRGKISNSIQTDAATLSDEAFIEQFRQELLNNQMLRSQLILQIPGLNDLVNDPLLFRERLGPLILQRRYGGYNTAMNPFGIPQDEYTRLMANPDDPDNKKRIAELLDQQAIDEQLRNAIEYTPEMFTQVPMLYINIEINNYPVKAFVDTGAQTTIMSTRLAKKTGLSRMIDKRFIGEARGVGTGKIIGRIHQAQVKIETQYIPCSFTVLDTDIDVLIGLDMLKRHLACVDLKENVLRIAEVETSFLSEAEIPKSFQEGLPAPTSVTTSSDKPLTPTKTSSTLPPQPGAVPALAPRTGMGPTPTGRSTAGATTATGRTFPEQTIKQLMDLGFPRDAVVKALKQTNGNAEFAASLLFQ	binds
Gal4-AD fused to Rad23 (protein, UniProt P32628 1-398) MVSLTFKNFKKEKVPLDLEPSNTILETKTKLAQSISCEESQIKLIYSGKVLQDSKTVSECGLKDGDQVVFMVSQKKSTKTKVTEPPIAPESATTPGRENSTEASPSTDASAAPAATAPEGSQPQEEQTATTERTESASTPGFVVGTERNETIERIMEMGYQREEVERALRAAFNNPDRAVEYLLMGIPENLRQPEPQQQTAAAAEQPSTAATTAEQPAEDDLFAQAAQGGNASSGALGTTGGATDAAQGGPPGSIGLTVEDLLSLRQVVSGNPEALAPLLENISARYPQLREHIMANPEVFVSMLLEAVGDNMQDVMEGADDMVEGEDIEVTGEAAAAGLGQGEGEGSFQVDYTPEDDQAISRLCELGFERDLVIQVYFACDKNEEAAANILFSDHAD	binds

Next, values leading:

binding	Molecule
binds	Gal4-AD fused to Ubp6 (from UniProt P43593 1-499) (enzyme)
no binding	Gal4-AD fused to Rpn2 (protein, UniProt P32565 1-945) MSLTTAAPLLALLRENQDSVKTYALESINNVVDQLWSEISNELPDIEALYDDDTFSDREMAALIASKVYYNLGEYESAVKYALAAKDRFDIDEKSQFVETIVSKSIEMYVQEASKQYTKDEQFYTKDIIDPKLTSIFERMIEKCLKASELKLALGIALEGYRLDIIESALKSKLDQDSTSENVKIINYLLTLAITTVTNSKFRSSILRKSFDFLMNMPNCDYLTLNKVVVNLNDAGLALQLFKKLKEENDEGLSAQIAFDLVSSASQQLLEILVTELTAQGYDPALLNILSGLPTCDYYNTFLLNNKNIDIGLLNKSKSSLDGKFSLFHTAVSVANGFMHAGTTDNSFIKANLPWLGKAQNWAKFTATASLGVIHKGNLLEGKKVMAPYLPGSRASSRFIKGGSLYGLGLIYAGFGRDTTDYLKNIIVENSGTSGDEDVDVLLHGASLGIGLAAMGSANIEVYEALKEVLYNDSATSGEAAALGMGLCMLGTGKPEAIHDMFTYSQETQHGNITRGLAVGLALINYGRQELADDLITKMLASDESLLRYGGAFTIALAYAGTGNNSAVKRLLHVAVSDSNDDVRRAAVIALGFVLLRDYTTVPRIVQLLSKSHNAHVRCGTAFALGIACAGKGLQSAIDVLDPLTKDPVDFVRQAAMIALSMILIQQTEKLNPQVADINKNFLSVITNKHQEGLAKFGACVAQGIMNAGGRNVTIQLENADTGTLDTKSVVGLVMFSQFWYWFPLAHFLSLSFTPTTVIGIRGSDQAIPKFQMNCYAKEDAFSYPRMYEEASGKEVEKVATAVLSTTARAKARAKKTKKEKGPNEEEKKKEHEEKEKERETNKKGIKETKENDEEFYKNKYSSKPYKVDNMTRILPQQSRYISFIKDDRFVPVRKFKGNNGVVVLRDREPKEPVALIETVRQMKDVNAPLPTPFKVDDNVDFPSA
